In the supplement of paper PMC9446081:
Among all 39,000 compounds or so, about 220 (0.56%) showed activity. This is one part of the list.

Test system: Escherichia coli K-12 BW25113
Experiment: relative growth (OD600 normalised to plate interquartile mean) (fraction); higher = less growth inhibition, active = 0.2 or less
Settings: 50 µM; LB; incubation time: overnight (16-24 h)
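Also: static incubation at 37 °C against the wild-type strain, values averaged over two biological replicates.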

Q: `O=C(C[C@@H]1C=C[C@@H](NC(=O)Cc2ccccn2)[C@H](CO)O1)NCCc1ccncc1` was tested. Which relative growth did it give?
A: Its relative growth is inactive: 0.999.

Q: `COCC(=O)Nc1ccc2c(c1)C(=O)N(C)[C@@H]1CC[C@@H](CC(=O)N3CCc4ccccc4C3)O[C@H]1CO2` was tested. Which relative growth did it give?
A: The relative growth was inactive: 0.998.

Q: Which relative growth does the source give for `C[C@@H]1CN([C@H](C)CO)C(=O)c2cc(NC(=O)C3CCCCC3)ccc2O[C@@H](C)CCCCO[C@@H]1CN(C)S(=O)(=O)c1ccc(Cl)cc1` here?
A: The relative growth was inactive: 0.996.

Q: `C[C@H]1CN([C@@H](C)CO)C(=O)Cc2cc(NC(=O)CCC(F)(F)F)ccc2O[C@@H]1CN(C)S(C)(=O)=O` was tested. Which relative growth did it give?
A: Its relative growth is inactive: 0.996.

Q: Which relative growth does the source give for `Nc1ccc(OCC(=O)N2CCOCC2)cc1` here?
A: Its relative growth is inactive: 1.03.

Q: How did the relative growth turn out when `C[C@H](CO)N1C[C@H](C)[C@H](CN(C)S(=O)(=O)c2ccc(Cl)cc2)Oc2ccc(NS(C)(=O)=O)cc2C1=O` was run?
A: Its relative growth is inactive: 1.01.

Q: `C[C@@H]1CCCCO[C@@H](CN(C)S(=O)(=O)c2cccs2)[C@@H](C)CN([C@H](C)CO)C(=O)c2cc(NC(=O)NC3CCCCC3)ccc2O1` was tested. Which relative growth did it give?
A: Its relative growth is inactive: 1.01.

Q: For `COCCOC(=O)N1C(=O)[C@@]2(c3cc(C#CCNC(N)=O)ccc31)[C@H](C(=O)N1CCc3cc(OC)c(OC)cc3C1)[C@H]1C(=O)O[C@H](c3ccccc3)[C@H](c3ccccc3)N1[C@@H]2c1ccccc1OCCO`, which relative growth is on record?
A: Its relative growth is inactive: 1.04.

Q: With `C[C@H]1CN([C@@H](C)CO)C(=O)c2cccc(NS(=O)(=O)c3ccc(Cl)cc3)c2O[C@@H]1CN(C)C(=O)Nc1ccc(C(F)(F)F)cc1` as the compound, how does the relative growth read?
A: The relative growth was inactive: 0.866.

Q: How did the relative growth turn out when `COc1ccc2c3c([nH]c2c1)[C@@H](CO)N(C[C@]13CCN(CC1)CC1CCCCC1)C(=O)Nc1cccc(c1)F` was run?
A: The relative growth was inactive: 0.999.

Q: With `CN1C(=O)c2cc(NC(=O)Nc3ccccc3F)ccc2OC[C@H]2O[C@@H](CC(=O)NCc3ccc(-c4ccccc4)cc3)CC[C@H]21` as the compound, how does the relative growth read?
A: The relative growth was inactive: 1.01.

Q: For `Cc1ccc(S(=O)(=O)N(C)C[C@@H]2Oc3ccc(NS(=O)(=O)c4c(C)noc4C)cc3CC(=O)N([C@@H](C)CO)C[C@H]2C)cc1`, which relative growth is on record?
A: The relative growth was inactive: 1.02.

Q: Which relative growth does the source give for `O=C(C[C@H]1C[C@H]2c3cc(NS(=O)(=O)c4ccc(F)cc4)ccc3O[C@H]2[C@H](CO)O1)NCCN1CCCCC1` here?
A: The relative growth was inactive: 1.

Q: For `C[C@@H]1CCCCO[C@H](CN(C)Cc2ccccc2)[C@H](C)CN([C@H](C)CO)C(=O)c2cc(NC(=O)CCC(F)(F)F)ccc2O1`, which relative growth is on record?
A: Its relative growth is inactive: 0.985.

Q: `N[C@@H]1CC[C@@H](c2ccc(Cl)c(Cl)c2)c2ccccc21` was tested. Which relative growth did it give?
A: The relative growth was active: 0.0794.

Q: For `C[C@@H]1CN([C@H](C)CO)C(=O)c2cccc(NS(=O)(=O)c3ccc(Cl)cc3)c2O[C@H]1CN(C)Cc1ccc(Oc2ccccc2)cc1`, which relative growth is on record?
A: Its relative growth is inactive: 1.04.

Q: `Cc1noc(C)c1NC(=O)Nc1ccc2c(c1)C(=O)N([C@H](C)CO)C[C@@H](C)[C@@H](CN(C)S(=O)(=O)c1ccccc1)O2` was tested. Which relative growth did it give?
A: The relative growth was inactive: 0.997.

Q: With `C[C@@H]1CN([C@@H](C)CO)C(=O)CCCn2nncc2CO[C@H]1CN(C)S(=O)(=O)c1ccc(Cl)cc1` as the compound, how does the relative growth read?
A: The relative growth was inactive: 0.987.

Q: Which relative growth does the source give for `C[C@@H]1CN([C@H](C)CO)C(=O)c2cccc(NC(=O)C3CCOCC3)c2O[C@@H]1CN(C)Cc1ccncc1` here?
A: The relative growth was inactive: 1.

Q: Which relative growth does the source give for `C[n+]1cccc(C(=O)[O-])c1` here?
A: Its relative growth is inactive: 0.934.

Q: How did the relative growth turn out when `Cc1noc(C)c1NC(=O)N(C)C[C@@H]1Oc2ccc(NC(=O)Nc3ccc(C(F)(F)F)cc3)cc2CC(=O)N([C@H](C)CO)C[C@@H]1C` was run?
A: The relative growth was inactive: 1.

Q: How did the relative growth turn out when `COCC(=O)N1C[C@H](C)[C@H](OC)CN(C)C(=O)c2ccc(NC(=O)Nc3ccccc3)cc2OC[C@H]1C` was run?
A: Its relative growth is inactive: 0.847.

Q: How did the relative growth turn out when `C[C@@H]1CCCCO[C@H](CN(C)Cc2ccccc2)[C@@H](C)CN([C@H](C)CO)C(=O)c2cc(NC(=O)Nc3ccc(F)cc3)ccc2O1` was run?
A: Its relative growth is inactive: 1.02.

Q: How did the relative growth turn out when `COc1cccc(S(=O)(=O)Nc2ccc3c(c2)[C@@H]2C[C@H](CC(=O)NCCc4ccccc4)O[C@@H](CO)[C@@H]2O3)c1` was run?
A: The relative growth was inactive: 0.977.

Q: `NCC[C@@H]1CC[C@H](NC(=O)Nc2ccc(F)cc2)[C@H](CO)O1` was tested. Which relative growth did it give?
A: Its relative growth is inactive: 0.985.

Q: For `C[C@H](O)C#Cc1cnc2c(c1)C(=O)N([C@H](C)CO)C[C@H](C)[C@H](CN(C)C(=O)Nc1ccc(C(F)(F)F)cc1)O2`, which relative growth is on record?
A: Its relative growth is inactive: 0.982.

Q: Which relative growth does the source give for `C[C@H]1CN([C@@H](C)CO)C(=O)Cc2cc(NC(=O)CCN3CCOCC3)ccc2O[C@H]1CN(C)C(=O)Nc1ccccc1` here?
A: Its relative growth is inactive: 0.946.

Q: `COc1ccc([Si](C)(C)[C@@H]2[C@@H](CCn3cc(CCO)nn3)O[C@]3(C(=O)N(C)c4ccccc43)[C@H]2C)cc1` was tested. Which relative growth did it give?
A: Its relative growth is inactive: 0.976.

Q: For `Cc1noc(C)c1S(=O)(=O)N(C)C[C@H]1OCCCC[C@H](C)Oc2ccc(NC(=O)Nc3ccccc3)cc2C(=O)N([C@@H](C)CO)C[C@@H]1C`, which relative growth is on record?
A: The relative growth was inactive: 1.01.

Q: For `COCc1cc(C)nc2n[nH]c(N)c12`, which relative growth is on record?
A: The relative growth was inactive: 0.975.

Q: How did the relative growth turn out when `C[C@@H]1CCCCO[C@H](CN(C)C(=O)Nc2ccc(F)cc2)[C@@H](C)CN([C@@H](C)CO)C(=O)c2cc(NC(=O)Nc3ccccc3)ccc2O1` was run?
A: Its relative growth is inactive: 1.01.

Q: `C[C@H]1CCCCO[C@@H](CN(C)C(=O)Nc2ccc(C(F)(F)F)cc2)[C@@H](C)CN([C@@H](C)CO)C(=O)c2cc(NC(=O)NC3CCCCC3)ccc2O1` was tested. Which relative growth did it give?
A: The relative growth was inactive: 1.02.

Q: With `CC(C)CC#Cc1ccc2c(c1)O[C@H](CN(C)Cc1cncnc1)[C@@H](C)CN([C@@H](C)CO)S2(=O)=O` as the compound, how does the relative growth read?
A: The relative growth was inactive: 0.922.

Q: Which relative growth does the source give for `C[C@@H]1CN([C@H](C)CO)C(=O)CCCn2cc(nn2)CO[C@H]1CN(C)S(=O)(=O)c1cn(C)cn1` here?
A: Its relative growth is inactive: 0.999.

Q: With `CO[C@H](CN(C)C(=O)c1ccccc1F)[C@H](C)CN([C@@H](C)CO)S(=O)(=O)c1ccc(Cl)cc1` as the compound, how does the relative growth read?
A: Its relative growth is inactive: 0.991.

Q: For `C[C@H](CO)N1C[C@H](C)[C@H](CN(C)C(=O)Nc2cccc3ccccc23)OCCCC[C@H](C)Oc2ccc(NC(=O)CCCN(C)C)cc2C1=O`, which relative growth is on record?
A: The relative growth was inactive: 0.971.

Q: How did the relative growth turn out when `OCCN(CCO)c1nc2ccccc2[nH]1` was run?
A: The relative growth was inactive: 0.974.

Q: Which relative growth does the source give for `C[C@@H]1CCCCO[C@H](CN(C)S(=O)(=O)c2ccc(F)cc2)[C@H](C)CN([C@H](C)CO)C(=O)c2cc(NC(=O)CCC(F)(F)F)ccc2O1` here?
A: Its relative growth is inactive: 1.02.

Q: How did the relative growth turn out when `C[C@@H]1CCCCO[C@H](CN(C)C(=O)Nc2ccccc2)[C@H](C)CN([C@@H](C)CO)C(=O)c2cc(NC(=O)NC3CCCCC3)ccc2O1` was run?
A: The relative growth was inactive: 1.

Q: Which relative growth does the source give for `Cc1noc(C)c1NC(=O)N(C)C[C@@H]1Oc2c(NC(=O)C3CCOCC3)cccc2C(=O)N([C@H](C)CO)C[C@H]1C` here?
A: The relative growth was inactive: 0.975.

Q: Which relative growth does the source give for `CNNCc1ccc(C(=O)NC(C)C)cc1` here?
A: The relative growth was inactive: 1.08.

Q: Which relative growth does the source give for `C[C@H](CO)N1C[C@H](C)[C@@H](CN(C)C(=O)Nc2ccc3c(c2)OCO3)Oc2ncc(C#CC3(O)CCCC3)cc2C1=O` here?
A: The relative growth was inactive: 0.985.

Q: Which relative growth does the source give for `Nc1ccc(C(=O)Oc2ccccc2)c(O)c1` here?
A: Its relative growth is inactive: 1.02.

Q: How did the relative growth turn out when `Cc1ccc(S(=O)(=O)N(C)C[C@@H]2OCCCC[C@@H](C)Oc3ccc(NC(=O)Nc4c(C)noc4C)cc3C(=O)N([C@H](C)CO)C[C@@H]2C)cc1` was run?
A: Its relative growth is inactive: 1.

Q: Which relative growth does the source give for `C[C@H](CO)N1C[C@H](C)[C@@H](CN(C)C(=O)CCCN(C)C)OCCCC[C@H](C)Oc2ccc(NS(=O)(=O)c3cn(C)cn3)cc2C1=O` here?
A: Its relative growth is inactive: 0.975.

Q: `C[C@H](C(=O)O)N1CCCC1=O` was tested. Which relative growth did it give?
A: The relative growth was inactive: 1.01.

Q: Which relative growth does the source give for `C[C@H]1CCCCO[C@H](CN(C)C(=O)CCC(F)(F)F)[C@@H](C)CN([C@@H](C)CO)C(=O)c2cc(NS(=O)(=O)c3ccc(Cl)cc3)ccc2O1` here?
A: The relative growth was inactive: 1.

Q: `C[C@H]1C[C@@H](OC2[C@@H](O)[C@H](O)[C@H](O)[C@H](O)[C@@H]2O)[C@@H](N)C[C@@H]1NC(=N)C(=O)O` (stereo partly specified) was tested. Which relative growth did it give?
A: The relative growth was inactive: 0.501.

Q: With `Cc1noc(C)c1NC(=O)N(C)C[C@H]1Oc2ccc(NS(C)(=O)=O)cc2CC(=O)N([C@@H](C)CO)C[C@@H]1C` as the compound, how does the relative growth read?
A: The relative growth was inactive: 0.996.

Q: `N#Cc1c(Oc2ccc(F)c(NC(=O)Cc3cccc(C(F)(F)F)c3)c2)ccc2nc(NC(=O)C3CC3)sc12` was tested. Which relative growth did it give?
A: Its relative growth is inactive: 1.01.

Q: For `C=CC[C@H](CC(=O)N(CCO)Cc1ccccc1)C(=O)NCCOC(=O)[C@H](CC=C)CC(=O)OC(C)(C)C`, which relative growth is on record?
A: The relative growth was inactive: 1.01.

Q: With `Cn1nc(CN2CCCC2=O)c2c1CN(C(=O)CO)C2` as the compound, how does the relative growth read?
A: Its relative growth is inactive: 1.01.

Q: For `C[C@@H]1CN([C@H](C)CO)C(=O)c2cc(NC(=O)Nc3ccc(C(F)(F)F)cc3)ccc2O[C@@H]1CN(C)C(=O)Nc1ccc2c(c1)OCO2`, which relative growth is on record?
A: The relative growth was inactive: 1.01.

Q: Which relative growth does the source give for `C[C@@H]1CCCCO[C@@H](CN(C)C(=O)c2ccccc2)[C@H](C)CN([C@H](C)CO)C(=O)c2cc(NC(=O)NC3CCCCC3)ccc2O1` here?
A: The relative growth was inactive: 0.973.

Q: Which relative growth does the source give for `Cc1ccc(S(=O)(=O)N[C@@H](Cc2ccccc2)C(=O)NCCn2cc(-c3cccc(/C=C/C(=O)NO)c3)nn2)cc1` here?
A: The relative growth was inactive: 1.01.

Q: With `C[C@@H]1CN([C@@H](C)CO)C(=O)Cc2cc(NC(=O)c3ccncc3)ccc2O[C@H]1CN(C)S(=O)(=O)c1ccc(Cl)cc1` as the compound, how does the relative growth read?
A: Its relative growth is inactive: 0.997.

Q: How did the relative growth turn out when `C[C@@H]1CN([C@H](C)CO)C(=O)c2cc(NS(=O)(=O)c3cn(C)cn3)ccc2O[C@@H](C)CCCCO[C@@H]1CN(C)C(=O)c1ccncc1` was run?
A: The relative growth was inactive: 0.992.

Q: How did the relative growth turn out when `COC(=O)Cc1csc(CC(N)=O)n1` was run?
A: Its relative growth is inactive: 1.01.

Q: `C[C@@H]1CN([C@@H](C)CO)C(=O)Cc2cc(NC(=O)Nc3cccc4ccccc34)ccc2O[C@H]1CN(C)C(=O)Nc1ccc(C(F)(F)F)cc1` was tested. Which relative growth did it give?
A: Its relative growth is inactive: 1.01.

Q: For `N[C@]12CC[C@](C(=O)O)(CC1)C2`, which relative growth is on record?
A: The relative growth was inactive: 0.991.

Q: For `C[C@@H]1CN([C@H](C)CO)C(=O)c2cccc(NC(=O)Nc3cccc4ccccc34)c2O[C@@H]1CN(C)C(=O)Nc1cccc2ccccc12`, which relative growth is on record?
A: Its relative growth is inactive: 1.02.
